# Results reported in the supplement of paper PMC3334620.
# Whole data set: some 33,000 sequences, median “E-score (-0.5 to 0.5)” near -0.04, cut for the highest 2% near 0.36. The list shows a part of the results.
# Target: T1, Hmlalpha2 (UniProt P0CY09)
# T1 sequence: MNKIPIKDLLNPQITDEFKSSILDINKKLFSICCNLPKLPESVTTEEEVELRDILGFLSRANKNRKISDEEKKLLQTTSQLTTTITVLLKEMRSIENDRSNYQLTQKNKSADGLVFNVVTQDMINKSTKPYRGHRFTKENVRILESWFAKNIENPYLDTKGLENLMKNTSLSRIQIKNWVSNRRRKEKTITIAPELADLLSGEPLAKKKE
# Assay: PBM E-score (8-mer binding enrichment) (E-score (-0.5 to 0.5)); higher = stronger / more preferred TF binding; most listed sequences are background and not binding sites
# Details: protein concentration: 200 nM; construct: GST-full length
# Method in brief: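 The E-score, a modified Wilcoxon-Mann-Whitney statistic, was computed by the Universal PBM Analysis Suite for every ungapped eight-base word pooled with its reverse complement. Scans behind it were normalised with masliner after bound GST-tagged yeast transcription factors were detected with fluorescent anti-GST. The proteins, at about 100-200 nM, had been applied to universal all-10-mer Agilent arrays made double-stranded by primer extension.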
row,Sequence,PBM E-score
1,AGCCTGTA,0.199
2,AGACGTGC,-0.0503
3,AACGGAGG,-0.0611
4,ACCCACAC,-0.0703
5,ATCCCAAG,-0.146
6,GGGCGCTA,-0.15
7,ATCTTATC,-0.0594
8,CGTCCAAG,-0.304
9,TGTCTAAA,0.318
10,AAGTACAG,0.0583
11,AGTTGATG,0.178
12,CCTGGGTC,-0.184
13,AATCGTTC,-0.0133
14,ATCTGAAG,-0.265
15,AAATTGCT,-0.0188
16,CGCAGCAA,0.00477
17,GACGCAGA,-0.0856
18,GAGTTAAA,0.185
19,GGAAGGAC,-0.0308
20,GGAGAGCA,0.0263
21,CATAGATG,-0.058
22,GAGGGCGC,-0.258
23,CGAGCGGA,-0.193
24,CAGTAATA,0.271
25,CAATGCAC,0.195

row,Sequence,PBM E-score
1,GGGACTAC,-0.141
2,CTGATTAA,0.141
3,CTTTTCAC,0.0898
4,AATATGCC,-0.0787
5,CTTGGTAC,0.159
6,AGAGGCTC,-0.387
7,CATTAATG,0.129
8,CCACAGTA,-0.00873
9,ACGGGCAG,0.0314
10,ATTTGTTA,0.266
11,GAGATTAA,0.113
12,AGACTATG,0.0474
13,ATAACCGG,-0.147
14,ATGAGTTC,-0.116
15,GTATTATA,0.318
16,AATATAGT,0.15
17,ATAATTGG,-0.226
18,ATATGAAA,0.063
19,TATCAGAA,0.0402
20,TCCGACCA,-0.0996
21,CTGCAGTC,-0.186
22,AGAGTAGC,-0.216
23,AAATTACC,0.171
24,GAGAAAAC,0.0511
25,AAAAAAAT,0.0701

row,Sequence,PBM E-score
1,TGGTAACA,0.239
2,CTCAGAGC,-0.256
3,GAAAACGA,-0.0996
4,CGCGCCTA,0.109
5,GAGCAGAA,0.0114
6,TGAGTAAA,0.265
7,ACTTGGAT,0.0128
8,GGATAGGA,-0.212
9,TCGCGCAA,0.209
10,ACAAGGCG,0.158
11,TTAAATAA,0.157
12,CAGGAATG,-0.0888
13,CGTGGAGC,-0.23
14,ATCCGTAA,-0.0845
15,CAACACTA,0.169
16,AACACATT,0.291
17,AGTTGTCG,0.1
18,ACTATGCT,0.0922
19,GAAATGGA,-0.105
20,AACTCGGG,-0.0416
21,ACCCGCGA,-0.0316
22,AGATGTCG,-0.0668
23,GGCAACCC,-0.304
24,CATGGTCG,-0.0159
25,CCTAAGAC,-0.124

row,Sequence,PBM E-score
1,AGGCGGCA,-0.156
2,CATTCATA,0.143
3,ACCCTAAG,-0.228
4,TAGGTGAA,0.169
5,ATGTGTTA,0.429
6,CTCCCCAG,-0.343
7,TCTCTTCA,-0.166
8,AAAGCCTA,0.0525
9,AGTCTCGC,-0.156
10,CTAGGGCA,-0.382
11,AACGGCAA,0.0509
12,CGCGTAAA,0.454
13,GCGACCAA,-0.0947
14,GAATCCTA,0.029
15,ATGCATCC,-0.287
16,ATGCATAA,0.147
17,CCTGCACA,-0.221
18,CCCGGTAC,-0.159
19,CTTGGTGC,-0.143
20,ACCTTGGC,-0.242
21,CAAACATG,0.34
22,CTTGGTTC,-0.019
23,TGCGTCCA,-0.0642
24,AGTTCGTA,0.0615
25,AGCCAAAA,0.077

row,Sequence,PBM E-score
1,CACAATAC,0.114
2,ACGTCGTC,0.187
3,CTTCCGCA,-0.157
4,CGAGTGGC,-0.219
5,CTGGAAAG,-0.217
6,ACATATCA,0.229
7,CTATGGAA,-0.0395
8,GAATACCA,0.109
9,GTAGGAAC,0.101
10,TCCCTACA,0.0844
11,AAGCCGGG,-0.177
12,AAAGGGGC,-0.146
13,CGTTGTGA,0.12
14,CCTCTCAC,-0.127
15,CGGCATAA,-0.0207
16,GACTATGA,-0.311
17,CACAGAAA,0.0577
18,CCCAAGTC,-0.242
19,CTGCCTCC,-0.265
20,CTCAGGGC,-0.295
21,GAAACGCA,0.0447
22,TTAACCAA,0.193
23,CTTGTTTC,0.0713
24,GATGAACA,0.239
25,ATCTTCAT,-0.125

row,Sequence,PBM E-score
1,ACCCTCTA,-0.18
2,AAAATTAT,0.269
3,CATCTTTA,0.177
4,AACTGCGT,0.257
5,ACATGGAT,0.388
6,ATCCGGAA,-0.0274
7,AACGACAC,0.161
8,ATAGTCCC,-0.131
9,ATCAGAGC,-0.225
10,CTAGCCCC,-0.172
11,ATACGTTA,0.255
12,AACGATAG,-0.0537
13,GCACTAGA,-0.237
14,CCTCGTGC,-0.0876
15,CCTCGGAA,-0.187
16,GCTTAGCA,-0.0761
17,ACTCATAG,-0.169
18,CAAGCGAC,0.0382
19,CTCAATAA,-0.0492
20,AGTCCAAT,0.0203
21,TCAACACA,0.43
22,TACCGTAA,0.121
23,GCGCGGCA,-0.0662
24,GCTATCGA,-0.235
25,AGGGCACG,-0.222

row,Sequence,PBM E-score
1,AAAGGGTC,-0.128
2,GTAGTCCA,0.0432
3,CTCCTCAC,-0.262
4,ATGGGCGA,-0.175
5,ACTATGAA,0.00774
6,CGCAGCTC,-0.054
7,ATGGCAGG,-0.256
8,GTCCGCAA,-0.224
9,GCCTTTCA,-0.215
10,GGAGTCAC,-0.228
11,AGACAAGG,0.0129
12,CGGCAGCA,-0.15
13,TCGTGGCA,0.0265
14,CGACTTCC,-0.102
15,GCGCTTAA,-0.00823
16,AAATACTC,0.0334
17,GCGTCTAA,0.0136
18,CGAGAGGC,-0.268
19,ACCTACCA,-0.136
20,AGGTCGCG,-0.156
21,CGCTAGAA,-0.237
22,ATGGCGGG,-0.264
